This is one part of the list. The full chains were built here from the parent and the listed change. Values near 0.05 are background.
B1: TEV protease; numbered along this chain (parent)
chain: MGESLFKGPRDYNPISSSICHLTNESDGHTTSLYGIGFGPFIITNKHLFRRNNGTLVVQSLHGVFKVKDTTTLQQHLVDGRDMIIIRMPKDFPPFPQKLKFREPQREERICLVTTNFQTKSMSSMVSDTSCTFPSGDGIFWKHWIQTKDGQCGSPLVSTRDGFIVGIHSASNFTNTNNYFTSVPKNFMELLTNQEAQQWVSGWRLNADSVLWGGHKVFMVKPEEPFQPVKEATQL

Variants of: B1
Assay: raw area under fraction-flipped curve 0-4 h after induction (AUC4h, not background-subtracted), DNA-recorder readout of cleavage of the substrate (dimensionless); higher = more cleavage of the substrate by the protease variant
Conditions: temperature: 34 °C; time window: 0-4 h after rhamnose induction
Procedure: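 In vivo DNA recorder in E. coli TOP10(DE3) ΔrhaA at 34 °C. Each TEVp single-site mutant (parent TEVp 0) is paired with a single-site variant of the 7-mer TEVs (canonical ENLYFQ|S). The substrate sits between flexible linkers in a Bxb1-sfGFP-TEVs-SsrA fusion, so cleavage stabilises Bxb1 and speeds flipping of a recombination array, read by NGS. The value is the raw area under the fraction-flipped curve over 0-4 h after rhamnose induction (AUC4h), with ≥20 reads per time point. It is not background-subtracted; inactive controls average about 0.047.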
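Further: Bxb1 expression induced with 0.2% (w/v) L-rhamnose at OD600 near 0.5, cultures sampled hourly, flipped fraction per protease–substrate barcode pair counted by paired-end Illumina sequencing.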

Row | Variant | area with substrate GNLYFQS | area with substrate HNLYFQS | area with substrate INLYFQS | area with substrate MNLYFQS | area with substrate NNLYFQS | area with substrate SNLYFQS | area with substrate TNLYFQS | area with substrate WNLYFQS | area with substrate YNLYFQS | area with substrate KNLYFQS
1 | MGESLFKGPRDYNPISSSICHLTNESDGHTTSLYGIGFGPFIITNKHLFRRNNGTLVVQSLHGVFKVKDTTTLQMHLVDGRDMIIIRMPKDFPPFPQKLKFREPQREERICLVTTNFQTKSMSSMVSDTSCTFPSGDGIFWKHWIQTKDGQCGSPLVSTRDGFIVGIHSASNFTNTNNYFTSVPKNFMELLTNQEAQQWVSGWRLNADSVLWGGHKVFMVKPEEPFQPVKEATQL [Q75M] | 0.064 | 0.0525 | 0.0654 | 0.0637 | 0.0692 | 0.0656 | 0.0395 | 0.0645 | 0.0624 | –
2 | MGESLFKGPRDYNPISSSICHLTNESDGHTTSLYGIGFGPFIITNKHLFRRNNGTLVVQSLHGVFYVKDTTTLQQHLVDGRDMIIIRMPKDFPPFPQKLKFREPQREERICLVTTNFQTKSMSSMVSDTSCTFPSGDGIFWKHWIQTKDGQCGSPLVSTRDGFIVGIHSASNFTNTNNYFTSVPKNFMELLTNQEAQQWVSGWRLNADSVLWGGHKVFMVKPEEPFQPVKEATQL [K66Y] | 0.0742 | 0.112 | 0.0705 | – | 0.0706 | 0.0713 | – | 0.0596 | – | 0.0676
3 | MGESTFKGPRDYNPISSSICHLTNESDGHTTSLYGIGFGPFIITNKHLFRRNNGTLVVQSLHGVFKVKDTTTLQQHLVDGRDMIIIRMPKDFPPFPQKLKFREPQREERICLVTTNFQTKSMSSMVSDTSCTFPSGDGIFWKHWIQTKDGQCGSPLVSTRDGFIVGIHSASNFTNTNNYFTSVPKNFMELLTNQEAQQWVSGWRLNADSVLWGGHKVFMVKPEEPFQPVKEATQL [L5T] | 0.0749 | – | 0.0596 | 0.0688 | – | – | 0.0705 | 0.0566 | – | 0.0567
4 | MGESLFKGPRDYNPISSSICHLTNESDGHTTSLYGIGFGPFIITNKHLFRRNNGTLVVQSLHGVFKVKDTTTLQQHLVDGRDMIIIRMPKDFPPFPQKLKFRSPQREERICLVTTNFQTKSMSSMVSDTSCTFPSGDGIFWKHWIQTKDGQCGSPLVSTRDGFIVGIHSASNFTNTNNYFTSVPKNFMELLTNQEAQQWVSGWRLNADSVLWGGHKVFMVKPEEPFQPVKEATQL [E103S] | 0.0772 | – | – | 0.0692 | – | – | 0.0451 | 0.0557 | – | –
5 | MGESLFKGPRDYNPISSSICHLTNESDGHTTSLYGIGFGPFIITNKHLFRHNNGTLVVQSLHGVFKVKDTTTLQQHLVDGRDMIIIRMPKDFPPFPQKLKFREPQREERICLVTTNFQTKSMSSMVSDTSCTFPSGDGIFWKHWIQTKDGQCGSPLVSTRDGFIVGIHSASNFTNTNNYFTSVPKNFMELLTNQEAQQWVSGWRLNADSVLWGGHKVFMVKPEEPFQPVKEATQL [R51H] | 0.0916 | – | – | – | – | – | – | – | – | –
6 | MGESLFKGPRDYNPISSSICHLTNESDGHTTSLYGIGFGPFIITNKHLFRSNNGTLVVQSLHGVFKVKDTTTLQQHLVDGRDMIIIRMPKDFPPFPQKLKFREPQREERICLVTTNFQTKSMSSMVSDTSCTFPSGDGIFWKHWIQTKDGQCGSPLVSTRDGFIVGIHSASNFTNTNNYFTSVPKNFMELLTNQEAQQWVSGWRLNADSVLWGGHKVFMVKPEEPFQPVKEATQL [R51S] | 0.059 | – | – | – | – | 0.0793 | – | 0.0634 | – | 0.0685
7 | MGESLFKGPRDYNPISSSICHLTNESDGHTTSLYGIGFGPFIITNKHLFRRNNGTLVVQSLHGVFKVKDTTTLQQHLVDGRDMIIIRMPKDFPPFPQKLKFREPQREERICLVTTNFQTKSMSSMVSDTSCTFPSGDGIFWKHWIQTKDGQCGSPLVSTRDGFIVGIHSASNFTNTNNYFTSVPKNFMELLTNQEAQQWVSGWRLNADSVLWGGHKVFMVKLEEPFQPVKEATQL [P222L] | 0.0629 | 0.0485 | – | 0.0466 | 0.0533 | – | 0.0513 | 0.0621 | 0.0558 | 0.0764
8 | MGESLFKGPRDYNPISSSICHLTNESDGHTTSLYGIGFGPFIITNKHLFRRNNGTLVVQSLHGVFKVKDTTTLQQTLVDGRDMIIIRMPKDFPPFPQKLKFREPQREERICLVTTNFQTKSMSSMVSDTSCTFPSGDGIFWKHWIQTKDGQCGSPLVSTRDGFIVGIHSASNFTNTNNYFTSVPKNFMELLTNQEAQQWVSGWRLNADSVLWGGHKVFMVKPEEPFQPVKEATQL [H76T] | 0.0438 | – | 0.0484 | – | – | 0.0639 | – | 0.0518 | – | –
9 | MGESLFKGPRDYNPISSSICHLTNESDGHTTSLYGIGFGPFIITNKHLFRRNLGTLVVQSLHGVFKVKDTTTLQQHLVDGRDMIIIRMPKDFPPFPQKLKFREPQREERICLVTTNFQTKSMSSMVSDTSCTFPSGDGIFWKHWIQTKDGQCGSPLVSTRDGFIVGIHSASNFTNTNNYFTSVPKNFMELLTNQEAQQWVSGWRLNADSVLWGGHKVFMVKPEEPFQPVKEATQL [N53L] | 0.0793 | 0.057 | – | – | – | – | 0.0569 | 0.047 | – | –
10 | MGESLFKGPRDYNPISSSICHLTNESDGHTTSLYGIGFGPFIITNKHLFRRNNGTLVDQSLHGVFKVKDTTTLQQHLVDGRDMIIIRMPKDFPPFPQKLKFREPQREERICLVTTNFQTKSMSSMVSDTSCTFPSGDGIFWKHWIQTKDGQCGSPLVSTRDGFIVGIHSASNFTNTNNYFTSVPKNFMELLTNQEAQQWVSGWRLNADSVLWGGHKVFMVKPEEPFQPVKEATQL [V58D] | 0.0327 | 0.0449 | 0.0476 | 0.0518 | – | 0.0468 | 0.0461 | – | 0.0416 | –

Same assay, conditions: temperature: 34 °C; time window: 0-4 h after rhamnose induction

Row | Variant | area with substrate PNLYFQS | area with substrate RNLYFQS | area with substrate VNLYFQS | area with substrate LNLYFQS
11 | MGESTFKGPRDYNPISSSICHLTNESDGHTTSLYGIGFGPFIITNKHLFRRNNGTLVVQSLHGVFKVKDTTTLQQHLVDGRDMIIIRMPKDFPPFPQKLKFREPQREERICLVTTNFQTKSMSSMVSDTSCTFPSGDGIFWKHWIQTKDGQCGSPLVSTRDGFIVGIHSASNFTNTNNYFTSVPKNFMELLTNQEAQQWVSGWRLNADSVLWGGHKVFMVKPEEPFQPVKEATQL [L5T] | 0.104 | 0.0544 | 0.0808 | –
12 | MGESLFKGPRDYNPISSSICHLTNESDGHTTSLYGIGFGPFIITNKHLFRRNNGTLVVQSLHGVFKVKDTTTLQQHLVDGRDMIIIRMPKDFPPFPQKLKFRSPQREERICLVTTNFQTKSMSSMVSDTSCTFPSGDGIFWKHWIQTKDGQCGSPLVSTRDGFIVGIHSASNFTNTNNYFTSVPKNFMELLTNQEAQQWVSGWRLNADSVLWGGHKVFMVKPEEPFQPVKEATQL [E103S] | – | – | – | 0.0631
13 | MGESLFKGPRDYNPISSSICHLTNESDGHTTSLYGIGFGPFIITNKHLFRSNNGTLVVQSLHGVFKVKDTTTLQQHLVDGRDMIIIRMPKDFPPFPQKLKFREPQREERICLVTTNFQTKSMSSMVSDTSCTFPSGDGIFWKHWIQTKDGQCGSPLVSTRDGFIVGIHSASNFTNTNNYFTSVPKNFMELLTNQEAQQWVSGWRLNADSVLWGGHKVFMVKPEEPFQPVKEATQL [R51S] | 0.0571 | – | – | –
14 | MGESLFKGPRDYNPISSSICHLTNESDGHTTSLYGIGFGPFIITNKHLFRRNNGTLVVQSLHGVFKVKDTTTLQQHLVDGRDMIIIRMPKDFPPFPQKLKFREPQREERICLVTTNFQTKSMSSMVSDTSCTFPSGDGIFWKHWIQTKDGQCGSPLVSTRDGFIVGIHSASNFTNTNNYFTSVPKNFMELLTNQEAQQWVSGWRLNADSVLWGGHKVFMVKLEEPFQPVKEATQL [P222L] | 0.0572 | – | 0.071 | –
15 | MGESLFKGPRDYNPISSSICHLTNESDGHTTSLYGIGFGPFIITNKHLFRRNNGTLVVQSLHGVFKVKDTTTLQQTLVDGRDMIIIRMPKDFPPFPQKLKFREPQREERICLVTTNFQTKSMSSMVSDTSCTFPSGDGIFWKHWIQTKDGQCGSPLVSTRDGFIVGIHSASNFTNTNNYFTSVPKNFMELLTNQEAQQWVSGWRLNADSVLWGGHKVFMVKPEEPFQPVKEATQL [H76T] | 0.0597 | 0.0718 | – | 0.0657
16 | MGESLFKGPRDYNPISSSICHLTNESDGHTTSLYGIGFGPFIITNKHLFRRNLGTLVVQSLHGVFKVKDTTTLQQHLVDGRDMIIIRMPKDFPPFPQKLKFREPQREERICLVTTNFQTKSMSSMVSDTSCTFPSGDGIFWKHWIQTKDGQCGSPLVSTRDGFIVGIHSASNFTNTNNYFTSVPKNFMELLTNQEAQQWVSGWRLNADSVLWGGHKVFMVKPEEPFQPVKEATQL [N53L] | 0.0628 | – | – | 0.0615
17 | MGESLFKGPRDYNPISSSICHLTNESDGHTTSLYGIGFGPFIITNKHLFRRNNGTLVDQSLHGVFKVKDTTTLQQHLVDGRDMIIIRMPKDFPPFPQKLKFREPQREERICLVTTNFQTKSMSSMVSDTSCTFPSGDGIFWKHWIQTKDGQCGSPLVSTRDGFIVGIHSASNFTNTNNYFTSVPKNFMELLTNQEAQQWVSGWRLNADSVLWGGHKVFMVKPEEPFQPVKEATQL [V58D] | – | – | 0.0539 | 0.059
